Here are results for 47 molecules from PubChem BioAssay AID1159614 (National Center for Advancing Translational Sciences (NCATS), 2016).

The whole screen tested about 45,000 compounds, of which about 65 (0.1%) were called active. The call rests on the fitted dose curve; in most records, active means well fitted activation curve with a large enough effect; inconclusive means small, poorly fitted or top-dose-only effect; inactive means no such curve, though single readings can be large or run the other way. Some of the results follow.

The target in the assay is Galactocerebrosidase (Homo sapiens) (UniProt P54803). Description: A Novel Cell-Based Assay to Identify Small Molecules for B -Galactocerebrosidase. Further: 0% is about no effect; nearly all actives have a fitted effect of over 65% in size. The conditions noted are these: 145M-Twi-hGALC-G270D cells (Twitcher mouse brain line with human GALC G270D), HMU-beta-Gal fluorescence, 48 h; series mostly up to 57.5 µM; activation: at the top concentration. A digest of the protocol: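 Brain-derived Twitcher mouse 145M-Twi cells stably expressing human GALC-G270D or wild-type GALC, treated live, then residual GALC activity read by fluorescence of HMU-b-Gal substrate (0.1 mM final) in citrate-phosphate buffer pH 5.2 with sodium taurocholate. Signal increase indicates enhancement.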
UniProt P54803, sequence (P54803 whole entry, looked up): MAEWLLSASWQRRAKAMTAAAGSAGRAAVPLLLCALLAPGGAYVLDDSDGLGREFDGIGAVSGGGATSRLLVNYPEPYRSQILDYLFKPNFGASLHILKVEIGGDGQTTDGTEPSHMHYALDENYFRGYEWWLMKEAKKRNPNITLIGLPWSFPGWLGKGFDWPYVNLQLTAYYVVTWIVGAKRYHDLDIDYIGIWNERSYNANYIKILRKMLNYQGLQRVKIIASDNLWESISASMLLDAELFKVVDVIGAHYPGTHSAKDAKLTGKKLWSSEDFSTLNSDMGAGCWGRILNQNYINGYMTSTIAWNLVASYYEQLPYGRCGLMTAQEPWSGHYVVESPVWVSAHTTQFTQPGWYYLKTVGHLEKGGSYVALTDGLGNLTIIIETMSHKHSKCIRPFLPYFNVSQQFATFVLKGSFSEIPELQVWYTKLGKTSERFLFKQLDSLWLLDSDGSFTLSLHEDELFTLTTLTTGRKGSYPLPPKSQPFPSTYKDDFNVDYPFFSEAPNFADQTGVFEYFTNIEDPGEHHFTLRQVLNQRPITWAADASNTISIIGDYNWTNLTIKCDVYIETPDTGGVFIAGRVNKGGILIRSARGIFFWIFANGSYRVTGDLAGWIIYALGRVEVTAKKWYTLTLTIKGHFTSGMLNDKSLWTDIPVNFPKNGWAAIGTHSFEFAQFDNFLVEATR
Take `Clc1ccc(N2CCN(c3ncnc4c3nc3n4CCCC3)CC2)cc1`: the “activation” value was inactive: -22.5%.

Consider `COc1cccc(N2CCN(C(=O)C3CCN(S(=O)(=O)c4ccc5c(c4)oc(=O)n5C)CC3)CC2)c1`, for which the “activation” value is inactive: -10.9%.

Regarding `COc1ccc2c(c1)CC(C(=O)NCCCN1CCN(c3ccc(F)cc3)CC1)CO2` (configuration not stated), the “activation” value was inactive: -0.833%.

For the molecule `CCOC(=O)c1ccc(N2C(=O)c3n[nH]c(-c4cccs4)c3C2c2ccc(C(C)(C)C)cc2)cc1` (configuration not stated), the “activation” value is inactive: -21.1%.

In the case of `O=C(Nc1nc2n(n1)C(c1ccccc1)C=C(c1ccccc1)N2)c1ccc(Cl)c([N+](=O)[O-])c1` (configuration not stated), the “activation” value was inactive: -19.5%.

In the case of `CCOc1ccccc1NC(=O)Cn1c(=O)n(Cc2ccccc2)c(=O)c2c(C)c(C)sc21`, the “activation” value was inactive: -17.8%.

On to `CCc1cccc(NC(=O)Cn2nc(-c3ccc(OC)cc3)ccc2=O)c1`, for which the “activation” value is inactive: -15.3%.

In the case of `CCC(C)NC(=O)Cn1ncc2c([nH]c3ccc(C)cc32)c1=O` (configuration not stated), the “activation” value was inactive: -5.89%.

With `COc1cccc(-c2ccc3c(N)c(C(=O)c4ccc(Cl)cc4)sc3n2)c1`, the “activation” value was inactive: -9.51%.

On to `Cc1cccc(C)c1Nc1sc(C(=O)c2ccccc2)c(N)c1C(=O)Nc1ccc(F)cc1`, for which the “activation” value was inactive: -18.9%.

On to `CC(C)OCCCNC(=O)c1cc2c(-c3ccc(Cl)cc3)nn(C)c2s1`, for which the “activation” value is inactive: 3.38%.

`CCCCC(Sc1nc2cc3c(cc2c(=O)n1CCCC(=O)NCc1ccc(OC)cc1)OCO3)C(=O)OCC` (configuration not stated): the “activation” value is inactive: -11.3%.

Take `COc1cc(NC(=O)C2CCCN(S(=O)(=O)c3ccc4c(c3)oc(=O)n4C)C2)c(C(=O)O)cc1OC` (configuration not stated): the “activation” value is inactive: -15.7%.

`Cc1ccc(NC(=O)c2c(C)oc3ccc(O)c(CN4CCCCCC4)c23)c(C)c1`: the “activation” value was inactive: -14.3%.

As for `CCOC(=O)c1[nH]c(C)c(CCC(=O)NCc2ccc(OCC)cc2)c1C`, the “activation” value is inactive: -11.6%.

As for `O=C(NCc1ccccc1F)c1ccc(CN2CC(=O)N3CCCCC3C2=O)cc1` (configuration not stated), the “activation” value is inactive: -12.4%.

On to `Cc1cc(C)c(NC(=O)Cn2c(=O)n(Cc3ccc4c(c3)OCO4)c(=O)c3ccc(C(=O)NC4CCCCC4)cc32)c(C)c1`, for which the “activation” value was inactive: -14.7%.

As for `CCc1ccc(NC(=O)C(=O)NCCc2csc(-c3ccc(C(F)(F)F)cc3)n2)cc1`, the “activation” value was inactive: -1.1%.

Regarding `CCOC(=O)c1sc2cccc(F)c2c1S(=O)(=O)N1CCN(c2cccc(Cl)c2)CC1`, the “activation” value is inactive: -2.55%.

With `CCc1ccc(CNC(=O)c2cnc3sc4cc(OC)ccc4n3c2=O)cc1`, the “activation” value is inactive: -9.07%.

For `CCCn1c2ccccc2c2cnn(CC(=O)N3CCC(C)CC3)c(=O)c21`, the “activation” value is inactive: -11.5%.

On to `COc1cccc(C(=O)N2c3cc(C)ccc3C(C)(c3ccccc3)CC2(C)C)c1` (configuration not stated), for which the “activation” value was inactive: -19.2%.

With `N#C/C(=C\c1ccc(Cl)cc1)c1nc(-c2cc3ccccc3oc2=O)cs1`, the “activation” value was inactive: -8.42%.

As to `COc1ccccc1NC(=O)c1cc2c(=O)oc3ccc(C)cc3c2s1`, the “activation” value was inactive: -24.2%.

`O=C(O)CSc1c2c(nc3cc(C(=O)Nc4ccc(F)c(Cl)c4)ccc13)CCC2`: the “activation” value is inactive: -6.41%.

Regarding `CCCCOc1ccccc1C(=O)N(Cc1ccc(C)o1)C1CCS(=O)(=O)C1` (configuration not stated), the “activation” value is inactive: -13.4%.

On to `Cc1ccc(NC(=O)CSc2nc3c(oc4ccccc43)c(=O)n2-c2ccc(F)cc2)c(C)c1`, for which the “activation” value was inactive: -8.5%.

As to `CC(C)C(=O)c1c(C(C)C)nn2ccccc12`, the “activation” value is inactive: -12.4%.

Turning to `COc1ccc(Nc2ncc3c(n2)CCN(Cc2cc(Br)cs2)C3)c(OC)c1`, the “activation” value is inactive: -13.8%.

For `COc1ccc(CNC(=O)c2ccc3c(c2)nc2n3CCC(C)C2)c(OC)c1` (configuration not stated), the “activation” value is inactive: -26.5%.

Turning to `COCCNC(=O)CSc1nc2cc3c(cc2c(=O)n1CCCCCC(=O)NCc1ccc(OC)cc1)OCO3`, the “activation” value is inactive: -25.2%.

In the case of `CC(C)c1ccc(S(=O)(=O)NCc2ccc3c(c2)CCN3C(=O)c2ccccc2)cc1`, the “activation” value was inactive: 11.3%.

As to `CCOc1ccccc1NC(=O)Cn1nnc2sc(-c3ccccc3)cc2c1=O`, the “activation” value was inactive: -0.567%.

Turning to `COc1ccc2cc(-c3nc4ccc(C(=O)O)cc4[nH]3)c(=O)oc2c1`, the “activation” value was inactive: -16.2%.

For `C=Cc1ccc(Cn2nc(-c3ccc(C)c(S(=O)(=O)N(CC)CC)c3)ccc2=O)cc1`, the “activation” value was inactive: -9.18%.

Consider `Cn1nc(-c2ccc(C(=O)Nc3ccc(F)cc3)cc2)c2ccccc2c1=O`, for which the “activation” value is inactive: 6.96%.

Take `COCCCNC(=O)CCCCn1c(=O)c2ccccc2n(CC(=O)Nc2ccc(C)cc2C)c1=O`: the “activation” value is inactive: -3.01%.

As to `Cc1cccn2c(=O)c3cc(C#N)c(=O)n(-c4nnc(SCc5ccccc5F)s4)c3nc12`, the “activation” value is inactive: -9.73%.

Regarding `CC(C(=O)NCc1ccccc1F)n1ccc2cc(S(=O)(=O)N3CCCC3)ccc21` (configuration not stated), the “activation” value is inactive: -2.08%.

In the case of `COc1ccc(Br)cc1C(=O)Nc1nc2ccc(F)cc2s1`, the “activation” value was inactive: -5.74%.

As for `CCc1ccccc1NC(=O)Nc1cc(C(=O)NCc2ccc(C)cc2)ccc1N1CCCC1`, the “activation” value is inactive: -9.39%.

In the case of `CCOc1ccccc1NC(=O)c1c(NC(=O)c2cccc(C)c2)sc2c1CCCC2`, the “activation” value is inactive: -7%.

For `C[C@H]1[C@H]2CC[C@H]3[C@@H]4CC=C5C[C@@H](N(C)C)CC[C@]5(C)[C@H]4CC[C@]23CN1C`, the “activation” value is inactive: -4.52%.

In the case of `O=c1c(S(=O)(=O)c2ccccc2)cn(Cc2ccccc2)c2cc(N3CCOCC3)c(F)cc12`, the “activation” value is inactive: -9.29%.

Turning to `O=C(Nc1ccc(C(F)(F)F)cc1)C1CCCN(c2cnccn2)C1` (configuration not stated), the “activation” value was inactive: 3.42%.

In the case of `O=C(Nc1ccccc1Cl)N1CCC(CN2CCCCC2)CC1`, the “activation” value is inactive: -16.6%.

In the case of `CC1CN(C(=O)Nc2ccc(C(=O)NCc3cccc(F)c3)cc2)c2ccccc2S1` (configuration not stated), the “activation” value is inactive: -6.35%.
